Source: PubChem BioAssay AID686978 (National Center for Advancing Translational Sciences (NCATS), 2013)
Values joined by “and” are separate entries in the source; they are usually repeats but may differ in a detail not shown here. Equal entries are not always repeated. About 64,000 (15%) of roughly 420,000 compounds were called active. The shares of active, inactive and inconclusive entries below differ from those in the screen. Calls follow the shape of the dose curve; as a rule, active = well fitted inhibition curve with a large enough effect; inconclusive = small, poorly fitted or top-dose-only effect; inactive = flat fitted curve, though single readings scatter. Potencies of inconclusive entries are left out as doubtful fits.

test: qHTS for Inhibitors of human tyrosyl-DNA phosphodiesterase 1 (TDP1): qHTS in cells in absence of CPT; settings: DT40 Tdp1-/- hTDP1 cells, no CPT, ATP luminescence, 48 h; activity change, negative = growth inhibition: at 46.2 µM (top of the series); also: nearly all actives have a fitted effect of over 55% in size
Summary of the method: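 Luminescent ATP content (CellTiter-Glo) served as the growth readout. Knockout chicken DT40 cells expressing human TDP1 were exposed to compounds without camptothecin for a minimum 48 hr at 37 °C.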
% is scaled to controls: 0 for no effect and ±100 for the full control effect; potency is read from the fitted curve at half-maximal effect; tags tell the direction and shape of the fitted curve.

| Structure (SMILES) | Potency | activity change, negative = growth inhibition |
| --- | --- | --- |
| O=C1c2ccccc2C(=O)N1CCc1c(-c2ccccc2)[nH]c2ccccc12 | active: 14.6 µM | – |
| CN(Cc1ccccc1)S(=O)(=O)c1ccc(NC(=O)C2CCCO2)cc1 (configuration not stated) | inconclusive [inhibitor, partial curve, poor fit] | – |
| Cc1cccc(C(=O)Oc2ccc3ccc(O)cc3c2)c1 | inconclusive [inhibitor, full curve, poor fit] | – |
| O=C(NCc1ccccc1)C(c1cc2ccccc2o1)n1c(=O)c(-c2cc3ccccc3[nH]2)nc2ccccc21 (configuration not stated) | inconclusive [inhibitor, single point] | – |
| CCC(Sc1nc2sc(C(=O)OC)c(C)c2c(=O)n1N)C(=O)NCC1CCCO1 (configuration not stated) | inconclusive [inhibitor, partial curve, poor fit] | – |
| CCCn1c(N)c(C(=O)CN(C)CC(=O)Nc2cccc(F)c2)c(=O)[nH]c1=O | inconclusive [inhibitor, single point] | – |
| O=C(Nc1ccc2nc(-c3ccccn3)c(-c3ccccn3)nc2c1)N1CCCC1 | inconclusive [inhibitor, single point] | – |
| CCn1ccnc1CN(C)Cc1nc(-c2cccc(Cl)c2)no1 | – | inactive: -24.3% |
| COCCNC(=O)c1cc(S(=O)(=O)N(C)c2ccccc2OC)ccc1C | inconclusive [inhibitor, partial curve] | – |
| CCOc1ccccc1N1CCN(Cc2ccc(OC)c(OC)c2OC)CC1 | inconclusive [inhibitor, partial curve] | – |
| C=CC[C@@H](Cc1ccc(F)cc1)C(=O)OC[C@H]1CCCN1C(=O)[C@H](CC=C)CC(=O)NCCO | inconclusive [inhibitor, single point] | – |
| CCC(C)N(C(=O)CSc1ncnc2sccc12)C1CCS(=O)(=O)C1 (configuration not stated) | inconclusive [inhibitor, single point] | – |
| CCOC(=O)c1ccc(NC(=O)c2ccc(CO)c(C(=O)NC3CCN(C(=O)OCC)CC3)c2)cc1 | inconclusive [inhibitor, partial curve] | – |
| NC(=O)N(N)c1nc(N2CCCC2)nc(N2CCCC2)n1 | – | inactive: 16% |
| Cc1ccc(C)c(Nc2ncccc2C(=O)NCc2cccs2)c1 | inconclusive [inhibitor, single point] | – |
| CC(C)(C)c1nc[nH]c(=O)c1Br | – | inactive: -5.35% |
| COc1ccc2c(c1)CCCC2=O | – | inactive: -5.27% |
| CCc1ccc2nc(NC(=O)CCCc3cccs3)sc2c1 | inconclusive [inhibitor, partial curve] | – |
| Cc1cccc(Nc2nc3c(c(=O)n(C)c(=O)n3C)n2Cc2ccccc2)c1 | – | inactive: -0.579% |
| COc1ccc(C2CC(O)(c3ccccc3)Oc3cc(OC)ccc32)cc1 (configuration not stated) | inconclusive [inhibitor, single point] | – |
| CC(C)c1ccc(CNc2ccc(N3CCOCC3)cc2)cc1 | inconclusive [inhibitor, single point] | – |
| Cn1c(-c2ccc(F)cc2)cnc1NCc1ccccc1 | inconclusive [inhibitor, single point] | – |
| CSc1ccc(CNC(=O)C2CCC(=O)N(CC3CCCCC3)C2)cc1 (configuration not stated) | inconclusive [inhibitor, partial curve] | – |

| Structure (SMILES) | Potency | activity change, negative = growth inhibition |
| --- | --- | --- |
| CCN1C(=O)[C@H]2[C@@H](c3ccc(Cl)cc3)N3C(=O)CN(CC4CC4)C(=O)[C@@]3(Cc3ccccc3)[C@H]2C1=O | – | inactive: -2.85% |
| C=CCn1c(=O)c2ccccc2n2c(SCc3nc(N)nc(Nc4ccccc4C)n3)nnc12 | inconclusive [inhibitor, single point] | – |
| COc1cc(C)c(S(=O)(=O)N2CCCC2)cc1C | inconclusive [inhibitor, single point] | – |
| CCOC(=O)c1sc2nc(N3CCOCC3)c3c(c2c1N)CCC3 | – | inconclusive: -31.7% [inhibitor] |
| Fc1ccc(-c2csc3ncnc(Nc4ccc(N5CCOCC5)cc4)c23)cc1 | active: 23.1 µM | – |
| CCc1ccccc1Nc1cc(C(=O)NC(C)c2ccccc2)c2ccccc2n1 (configuration not stated) | inconclusive [inhibitor, single point] | – |
| COc1ccc(NC(=O)N(C)C[C@H]2Oc3ccc(NS(=O)(=O)c4ccc(OC)cc4)cc3C(=O)N([C@H](C)CO)C[C@@H]2C)cc1 | – | inactive: 3.79% |
| CC(C)NC(=O)C1(C)CSCC(=O)N1C1CCN(Cc2ccccc2)CC1 (configuration not stated) | – | inactive: -7.56% |
| COc1cc(C2c3c(-c4cc(C)ccc4O)n[nH]c3C(=O)N2CCCO)ccc1OCCC(C)C (configuration not stated) | active: 29.1 µM | – |
| CS(=O)(=O)N(CC(=O)NCc1ccc2c(c1)OCO2)Cc1ccccc1 | active: 20.6 µM | – |
| CCCc1nn2c(=O)cc(COC(=O)c3ccccc3NC(=O)c3ccc(Cl)cc3)nc2s1 | inconclusive [inhibitor, partial curve] | – |
| O=C(CCCc1ccccc1)Nc1ccc(S(=O)(=O)N2CCOCC2)cc1 | inconclusive [inhibitor, single point] | – |
| Cc1cccc(C)c1NC(=O)C1CCCN1C(=O)OC(C)(C)C (configuration not stated) | inconclusive [inhibitor, single point] | – |
| COc1ccc(NC(=O)CN(C)S(=O)(=O)c2ccc3c(c2)OCCO3)c2ncccc12 | – | inconclusive: -35.4% [inhibitor] |
| NCCCCCCCCCCNS(=O)(=O)c1cccc2c(Cl)cccc12 | active: 26.6 µM and active: 12.6 µM | – |
| CN(C(=O)c1ccc(NC(=O)Cc2ccc(NC(=O)C3CCCN(C(=O)C4CCC4)C3)cc2)cc1)C1CCCC1 (configuration not stated) | inconclusive [inhibitor, partial curve] | – |
| CC(=O)Nc1ccc(S(=O)(=O)NCCc2cc3c(C)ccc(C)c3[nH]c2=O)cc1 | – | inactive: -13.5% |
| COc1ccc(-n2c(/C=C3\C(=O)N(C)c4ccccc43)nc3ccccc3c2=O)cc1 | inconclusive [inhibitor, single point] | – |
| Nc1ccccc1C=C1Cc2ccccc2C1=O | – | inactive: -26.1% |
| Cc1cc(C(=O)O[C@H]2[C@H](Cc3ccccc3)NS(=O)(=O)[C@H]3C[C@@H]4C=C[C@]23O4)ccc1[N+](=O)[O-] | inconclusive [inhibitor, single point] | – |
| COc1ccc(NC(=O)CSc2nc3ccccc3n2Cc2cccc(OC)c2)cc1 | inconclusive [inhibitor, single point] | – |
| CC1(C2CC2)NC(=O)N(CC(=O)N2CCN(S(=O)(=O)c3ccc(F)c(F)c3)CC2)C1=O (configuration not stated) | inconclusive [inhibitor, full curve] | – |
| CC(=O)c1ccc(N2C(=NC(=O)CCC3CCCC3)SC3CS(=O)(=O)CC32)cc1 (configuration not stated) | inconclusive [inhibitor, partial curve, poor fit] | – |

| Structure (SMILES) | Potency | activity change, negative = growth inhibition |
| --- | --- | --- |
| COc1cc2c(NC3CCN(C)CC3)nc(N3CCCN(C)CC3)nc2cc1OCCCCCC(N)=O | – | inconclusive: -32.1% [inhibitor] |
| COc1ccc2c(CNCCc3ccco3)c(C(=O)O)n(Cc3ccccc3)c2c1 | – | inconclusive: -3.61% [inhibitor] |
| CC(=O)Nc1ccc(OCC(O)CN2CCN(c3ccc(F)cc3)CC2)cc1 (configuration not stated) | – | inactive: 7.54% |
| CC(C)(C)c1ccc(C(=O)O)c(C(=O)c2ccc(C(=O)O)cc2)c1 | inconclusive [inhibitor, full curve, poor fit] | – |
| Cc1cc(N2C(=O)C3C4CC(c5ccccc5)C(C4)C3C2=O)no1 (configuration not stated) | – | inactive: -17.9% |
| O=C(CC(=O)N/N=C\c1ccccc1)NCCc1ccccc1 | – | inactive: -1.08% |
| CC(C)C[C@H](NC(=O)c1[nH]cnc1C(=O)N[C@@H](C)c1ccccc1)C(=O)OCc1ccccc1 | active: 25.9 µM | – |
| CCOC(=O)c1sc(Nc2nc3ccc(OC)cc3s2)cc1C | inconclusive [inhibitor, single point] | – |
| COCCNC(=O)c1cccc(-n2c(C)nc3cccnc32)c1 | – | inactive: -12.6% |
| CCc1sc(Nc2cccc(C)c2C)nc1-c1cc2cccc(OC)c2oc1=O | active: 20.6 µM | – |
| O=C1C2C3C=CC(C4CC34)C2C(=O)N1CCCCN1CCN(c2ccc(F)cc2)CC1 (configuration not stated) | inconclusive [inhibitor, partial curve] | – |
| Cc1c(C(=O)O)[nH]c2c1C(=O)CC(c1ccc(Cl)cc1)C2 (configuration not stated) | – | inactive: -7.23% |
| C=CCc1cccc(/C=N/NC(=O)c2ccccc2Br)c1O | inconclusive [inhibitor, single point] | – |
| CCOC(=O)c1ccc(NC(=S)NCCCN2CCN(C3CCCCC3)CC2)cc1 | inconclusive [inhibitor, single point] | – |
| COc1ccc(F)c(-c2nc(CN3CCC(c4ccccc4)CC3)c(C)o2)c1 | inconclusive [inhibitor, single point] | – |
| O=C(CN1CCN(c2ccccn2)CC1)Nc1ccc(Br)cc1 | inconclusive [inhibitor, partial curve] | – |
| Cc1[nH]c2ccc(C(=O)N3CCCCC3)cc2c1C | inconclusive [inhibitor, partial curve] | – |
| COC(=O)c1sc(NC(=O)c2cc(-c3ccccc3)nc3ccccc23)c(C#N)c1C | active: 7.31 µM | – |
| Cc1c(C(=O)NCCSCc2c(Cl)cccc2Cl)cccc1[N+](=O)[O-] | inconclusive [inhibitor, single point] | – |
| COc1ccc(-c2cc(C(F)(F)F)nc(SCC(=O)NCCc3ccccc3)n2)cc1OC | inconclusive [inhibitor, single point] | – |
| COc1cccc(C(=O)Nc2c3c(nn2-c2cccc(C)c2C)CS(=O)(=O)C3)c1OC | active: 15.8 µM | – |
